{
  "source": "paper PMC12136788",
  "binders": {"B1": {"name": "chr12:39763582:39763583:-_ENSG00000139116_ENST00000544797|hu_hu|motif|central (ssRNA)", "RNA": "GGGAGUUCUACAGUCCGACGAUCCUCUAAGAAUUGGGCAUUCACUUUAAAAUCUGGAGCAGGAAGCCCAUUUUUAAUUGCGGUGUGUUUUUUUUCUUCAAUACUCUUAAAAAGGUGUUUAACAGCUCGAGAAAUAAUACCCAGCAACAGAGGAUUGAGCAUCA"}, "B2": {"name": "chr15:88994910:88994911:-_ENSMUSG00000036606_ENSMUST00000109331|mus_mus|FALSE|FALSE (ssRNA)", "RNA": "GGGAGUUCUACAGUCCGACGAUCGUUCUCCACCAGGCUCAUGGCCUCACGGCAGUCAUAGAAGGGAUACUGGUGGGAGGUGAGGAAGACACUGCCGCUUUUUAAGAGGAGCUGGAUGCUCACGUCAACAUGGUCUUGGCCUGGCAACAGAGGAUUGAGCAUCA"}, "B3": {"name": "chr16:94637918:94637919:+_ENSMUSG00000040785_ENSMUST00000117648|mus_mus|FALSE|FALSE (ssRNA)", "RNA": "GGGAGUUCUACAGUCCGACGAUCAUCCUGGUGUGCAGCUCUGGAAGAUUUUGAAAACUGUUUCUCCAAAAUGCUUUUCAAAUCUACUUGUAAACUCACUUCUGAAUUAGAACUGGGCUUUUCUGAUUCAUUGUUUCGUGAUUUCAACAGAGGAUUGAGCAUCA"}, "B4": {"name": "chr7:135612270:135612271:-_ENSG00000105887_ENST00000393085|hu_mus|hu_hu_hu_mus_False|78_108 (ssRNA)", "RNA": "GGGAGUUCUACAGUCCGACGAUCGUUUCUGAGAUGUAUGUUAAAUAGUACUUCAGUAACAAAACUUACUUAACCUUUUAUUAAUGCGUGUUGUACCAAAAGCAGACAUUUUAGCUUCAUUUAUUCAAAAAUAUUAACAUUAAGCAACAGAGGAUUGAGCAUCA"}, "B5": {"name": "chr6:75947695:75947696:-_ENSG00000112695_ENST00000509698|hu_mus|FALSE|FALSE (ssRNA)", "RNA": "GGGAGUUCUACAGUCCGACGAUCACGACAUUAGUUCUGCUUCUUGGGAAAUGCAGCCAUAGCUAACAGAUAGAUGGCAUAGGCUGUGCCACCAAGCGUCAGAGCCAUUGUGGCUCUGUAGAGGAGGGCAUCAGAUGCCCCGCCCAACAGAGGAUUGAGCAUCA"}, "B6": {"name": "chr2:216981417:216981418:+_ENSG00000079246_ENST00000392132|hu_hu|hu_hu_hu_mus_True|1_58 (ssRNA)", "RNA": "GGGAGUUCUACAGUCCGACGAUCCUGAUACUGGUCCUUGCCAGCAAGGGCAUUAUCAGUGCCAUCUGUGCCAUAGAGGACUAAAGCAAUCUCAUCUUUGCUCUCCGAAAAUACCUGUCGUUGGACAAACAUAGUCAUCACCUUCAACAGAGGAUUGAGCAUCA"}, "B7": {"name": "chr7:151048522:151048523:+_ENSG00000013374_ENST00000566856|hu_mus|hu_hu_hu_mus_True|8_8 (ssRNA)", "RNA": "GGGAGUUCUACAGUCCGACGAUCCUGUUUCUUAUUUAUUACGAUCUUGAUGUAAUUUUCUUGAAAUCCGAAAGUUUCAGCUAUUUGACACCUCAGGUCUCUACCAGUGACAUGCAAGCGGGUCUCCAACAAGUUUUUCUUAUCCAACAGAGGAUUGAGCAUCA"}, "B8": {"name": "chr3:148802587:148802588:-_ENSG00000071794_ENST00000310053|hu_mus|hu_hu_hu_mus_False|8_8 (ssRNA)", "RNA": "GGGAGUUCUACAGUCCGACGAUCUCCAACAACUUGUCCUCUCAUAGUUCCAAAUAAAACCAAAUCUUGCUCUUCAUCACUCGUUAGGAAGUCAUCUGGAGGAAUAAUGUCUUGGAAUUCAAAAUGUGGAAAGAAAGUUGAGUACAACAGAGGAUUGAGCAUCA"}, "B9": {"name": "chr17:35122734:35122735:+_ENSMUSG00000007050_ENSMUST00000114011|mus_hu|FALSE|FALSE (ssRNA)", "RNA": "GGGAGUUCUACAGUCCGACGAUCCCAUCCCCAAAUGAAUCACAUGCUGCCCUGGAAAGACCUAGGAAACUCUCCUACCAUCUCCAGAGAAGUAGUGAGAAAGGCAGGUGCUGGGGACUGGGAAGGCUUUGAAGUUUCCCAGCCCAACAGAGGAUUGAGCAUCA"}, "B10": {"name": "chr7:151622947:151622948:-_ENSMUSG00000031078_ENSMUST00000033407|mus_mus|FALSE|FALSE (ssRNA)", "RNA": "GGGAGUUCUACAGUCCGACGAUCGAAGAGCCCGUAUCUGCCCUUGCACACCCCACGCCACCAGCCAUCGUCAAUCAUUUCUAUGUUGGUGAUGAUGUCAUCAGGGUCAAAGGAGAUCUCAUCAUCGCCAGCAGCCUGGUAGUCCAACAGAGGAUUGAGCAUCA"}, "B11": {"name": "101970610_101970730_1729_CDS_ENSG00000158301_ENST00000332262|human|control|control (ssRNA)", "RNA": "GGGAGUUCUACAGUCCGACGAUCCUCCUCCCUGACUCUGGGCCUGAACAAGUUAUUGGUAUUUUCUCCAACCCAGAAGGAGAAUGGGUUGCUGGCCUCAUCCUCAGAUCCAGACCAGGAAUCAACAUAGGCUUCUUGCUUGGACAACAGAGGAUUGAGCAUCA"}, "B12": {"name": "chr3:118931466:118931467:-_ENSG00000121578_ENST00000480814|hu_hu|motif|central (ssRNA)", "RNA": "GGGAGUUCUACAGUCCGACGAUCACUGUGAUGUUGAUAUAUAAAGGAUUGUGUUCCACAGAUACUAAUUUAUAAGAACAACGGCUCAACCCAUCUGUUCUCCAGACUCGUGACACUUGGUGUAAGAGCUUCAUCCGUUCUGCGCAACAGAGGAUUGAGCAUCA"}, "B13": {"name": "chr9:69863160:69863161:+_ENSMUSG00000033543_ENSMUST00000118198|mus_mus|FALSE|FALSE (ssRNA)", "RNA": "GGGAGUUCUACAGUCCGACGAUCCUGUAUGAGCUCAUCAAGGCUCUCUUGAAGACUGUUCCCCAAAGUUGUAUUUCUGUAUAACUGAUAGGCCAUGGCUUAAAAGGAAGCAAUUACUUUUUCUUCAGGCUUGCAUUGAUGUCCCAACAGAGGAUUGAGCAUCA"}, "B14": {"name": "chr7:116558156:116558157:+_ENSG00000198898_ENST00000458284|hu_mus|FALSE|FALSE (ssRNA)", "RNA": "GGGAGUUCUACAGUCCGACGAUCGAGAAGGAACAGAGAGAGAGAGAAAGAAAGAGAGAGAGAGAGAGACUUCGAAAGGAGGAACAGAGUAAGAUACUUAUCUAAACUCAUGUCCAACCCUCUGAACAAAGGAAAUGGAACAGGCAACAGAGGAUUGAGCAUCA"}, "B15": {"name": "chr3:130683820:130683821:+_ENSG00000017260_ENST00000359644|hu_hu|FALSE|FALSE (ssRNA)", "RNA": "GGGAGUUCUACAGUCCGACGAUCACCAUCUGAAGUAAAUAUGUGAGUAACAGUCAUUUCAUUCUUCGUCAGUGUUCCAGUUUUAUCUGAACAAAUCACAUUACAGCAGCCCAGAGUUUCAACAAUAGGCAGCUUUUUCACAAUCAACAGAGGAUUGAGCAUCA"}, "B16": {"name": "83681929_83683676_522_CDS_ENSMUSG00000032262_ENSMUST00000034796|mouse|control|control (ssRNA)", "RNA": "GGGAGUUCUACAGUCCGACGAUCUCCUGCGUUGUAUGAUCCCAUGAAUAGCUCUCUGAAGAUGAAAAGGUUAAGCAAAACCAUGCCAAAAUUAUAGAUUAUGAGUACUAAGCGCAUUUGGAACGGCUCGCGGUCUUUCAUCCACAACAGAGGAUUGAGCAUCA"}, "B17": {"name": "36908727_36908847_66_3pUTR_ENSMUSG00000024811_ENSMUST00000025729|mouse|control|control (ssRNA)", "RNA": "GGGAGUUCUACAGUCCGACGAUCUCGGCUCCGUGAGCCCCGGCUGCCCCACCGCGGUGGAGGCAGCGCGAACCCGCUCGCCGAGCCCCGAAGCGACGCGACGGCGGAAGCGGCCGAGACCACUCCUGCCAGCUCGGUCGGGUCCAACAGAGGAUUGAGCAUCA"}, "B18": {"name": "chr7:141438946:141438947:+_ENSG00000106028_ENST00000265304|hu_mus|hu_hu_hu_mus_True|58_58 (ssRNA)", "RNA": "GGGAGUUCUACAGUCCGACGAUCGACGAAAUACCUGUAACACAGGUCUUCGAAACAUGGCUUCUGUUUUUCUUACAGUCUAAUCUUUAGGCUUUUCCUAAAGGAAAGAAAGAAAAGAGAAAAAUGAUAAAUCAAGAAACUACACAACAGAGGAUUGAGCAUCA"}, "B19": {"name": "chr14:59828787:59828788:+_ENSMUSG00000035469_ENSMUST00000043227|mus_hu|motif|central (ssRNA)", "RNA": "GGGAGUUCUACAGUCCGACGAUCGAGUGAAGAUGGGCCACUUUCCGACAUCCACCAUGACUCUGGCUUCAAGCAAUUCCGGUAAAUAAGCCGACAUCUCUGAGUCCAGGAGGUUGAGGCUGCAGUGAGCCGUGUUCACACCACCAACAGAGGAUUGAGCAUCA"}, "B20": {"name": "6917638_6917758_248_5pUTR_ENSMUSG00000041272_ENSMUST00000039987|mouse|control|control (ssRNA)", "RNA": "GGGAGUUCUACAGUCCGACGAUCUUCACUCUCACAUCAAGCAACUCCUUUUCUUUUCCUUUUUGAAAAAAAAAAAAAAAAAAAAAGUGCUCAGAAAAAAAAAAAAAAGCUCAGACGGAACAGAGAGGCGUCUGGGCUCAGGAGCAACAGAGGAUUGAGCAUCA"}, "B21": {"name": "chr11:46405157:46405158:+_ENSG00000110492_ENST00000395566|hu_hu|hu_hu_hu_mus_False|58_98 (ssRNA)", "RNA": "GGGAGUUCUACAGUCCGACGAUCCCCUCCCCACUUUGGCUGGGGAGUGUGGGCGUGAGAGGACAGGCGUGAUUGACAAAGCUAACGGGAAGACAAAAGGCACUGGUGGGUUAUAUCUUGGGCCUGUGGGAGAGGAGGGCUCCGCAACAGAGGAUUGAGCAUCA"}, "B22": {"name": "49097590_49098609_1169_CDS_ENSG00000008294_ENST00000262013|human|control|control (ssRNA)", "RNA": "GGGAGUUCUACAGUCCGACGAUCUUCUGACUUUUCUUCAUUUUCAGCAGAGCCAGUAGAUACAUUUCUAGUUUCCUGGGCUACCUGUACUUCAAUGUGUUUGCUUAUCUCUGAUUUAUUUGGCGCAUCUGUAACCUUCACAAACAACAGAGGAUUGAGCAUCA"}},
  "note": "Some of the results follow.",
  "data": [
    {"target": "T1, UNK ZnF1-3 (human, UniProt Q9C0B0 31-174)", "T1 sequence": "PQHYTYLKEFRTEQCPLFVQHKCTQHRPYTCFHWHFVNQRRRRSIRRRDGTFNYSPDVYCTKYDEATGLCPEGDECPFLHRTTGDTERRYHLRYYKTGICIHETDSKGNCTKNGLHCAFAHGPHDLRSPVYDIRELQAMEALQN", "test": "nsRBNS (natural sequence RNA bind-n-seq); RBNS binding buffer (assumed for nsRBNS): 25 mM Tris pH 7.5, 150 mM KCl, 3 mM MgCl2, 0.01% Triton X-100, 500 ug/ml BSA, 20 U/ml SUPERase-In, 4 C; UNK is unkempt and MSI1 is Musashi-1; names of the RNAs are library labels; protein concentration not given here; high values mean tight binding", "units": {"binding signal": "enrichment R"}, "values": [
      {"binder": "B1", "binding signal": 2.36},
      {"binder": "B2", "binding signal": 1.26},
      {"binder": "B3", "binding signal": 0.581},
      {"binder": "B4", "binding signal": 0.741},
      {"binder": "B5", "binding signal": 0.95},
      {"binder": "B6", "binding signal": 0.832},
      {"binder": "B7", "binding signal": 0.699},
      {"binder": "B8", "binding signal": 1.29},
      {"binder": "B9", "binding signal": 0.748},
      {"binder": "B10", "binding signal": 1.12},
      {"binder": "B11", "binding signal": 0.696},
      {"binder": "B12", "binding signal": 0.75},
      {"binder": "B13", "binding signal": 0.917},
      {"binder": "B14", "binding signal": 2.46},
      {"binder": "B15", "binding signal": 1.17},
      {"binder": "B16", "binding signal": 1.16},
      {"binder": "B17", "binding signal": 0.195},
      {"binder": "B18", "binding signal": 0.51},
      {"binder": "B19", "binding signal": 1.02},
      {"binder": "B20", "binding signal": 1.01},
      {"binder": "B21", "binding signal": 2.32},
      {"binder": "B22", "binding signal": 0.473}
    ]}
  ]
}
